# Test results from PubChem BioAssay AID588855 (National Center for Advancing Translational Sciences (NCATS), 2011).
# Out of some 410,000 compounds screened, about 5,000 (1.2%) were called active. The inconclusive results got no clear call from the source; some entries with a clear call stand among them for comparison. Calls follow the shape of the dose curve; as a rule, active = well fitted inhibition curve with a large enough effect; inconclusive = small, poorly fitted or top-dose-only effect; inactive = no such curve, though single readings can be large or run the other way. Potencies beside an inconclusive call are fits to weak or partial responses and may not hold up.
# Assay: qHTS for Inhibitors of TGF-b; also: nearly all actives have a fitted effect of over 65% in size
# Details: HepG2 CAGA-GFP TGF-b/SMAD3 reporter, GFP fluorescence, 18 h, TGF-beta stimulated, 500 pg/mL final; series mostly up to 46.1 µM
# Summary of the method: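 First, reporter cells (HEPG2 CAGA-GFP) rested 2 h at 37 degrees C. Next, compounds were pinned in and TGF-beta added to 500 pg/mL final. After 18 h, GFP was imaged per cell and summed per well.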
# Potency is read from the fitted curve at half-maximal effect; tags tell the direction and shape of the fitted curve.
row,Compound,Potency
1,O=C(CN1CC(=O)Nc2ccccc21)NCCc1ccc(Cl)cc1Cl,inactive
2,O=C(Nc1nc2ccc(S(=O)(=O)N3CCCC3)cc2s1)C1CCCCC1,"inconclusive: 22.4 µM [inhibitor, single point]"
3,COc1ccc(Br)cc1CNC(=O)c1cc2n(n1)CCCN(Cc1ccc(C)cc1)C2=O,"inconclusive: 17.8 µM [inhibitor, partial curve, poor fit]"
4,COc1ccc(OC)c(-c2csc(NC(=O)Cc3ccccc3)n2)c1,"inconclusive: 25.1 µM [inhibitor, single point]"
5,NC(=O)CSc1n[nH]c(=O)n1CCc1ccccc1,inactive
6,CCOc1cccc(C(=O)N(Cc2ccc(F)cc2)C2CCS(=O)(=O)C2)c1 (configuration not stated),inactive
7,Cc1ccc(NC(=O)CCc2nnc3n(C)c(=O)c4sccc4n23)cc1C,"inconclusive: 12.6 µM [inhibitor, partial curve]"
8,CC(C)Oc1ccc(C(=O)N(Cc2ccco2)c2ccccn2)cc1,"inconclusive: 3.98 µM [inhibitor, single point]"
9,CC(C)CC(N)c1csc(Nc2ccc(C(F)(F)F)cn2)n1 (configuration not stated),"inconclusive: 35.5 µM [inhibitor, single point]"
10,CCOC(=O)c1cc(CC)sc1NC(=O)c1ccc2c(c1)OCCO2,"inconclusive: 35.5 µM [inhibitor, single point]"
11,CCc1ccccc1NNC(=O)c1snnc1C,"inconclusive: 35.5 µM [inhibitor, single point]"
12,CC(C)(C)NC(=O)C[C@H]1C[C@H](C(=O)N2CCOCC2)[C@@]2(CCC3CCCC3)c3[nH]c4ccc(Cl)cc4c3CCN2C1=O,"inconclusive: 31.6 µM [inhibitor, single point]"
13,COc1ccccc1C1CCN(Cc2ccc3ccccc3c2)CC1,"inconclusive: 17.8 µM [inhibitor, single point]"
14,COc1cc(OC)c(/C=C/c2ccncn2)c(OC)c1,"inconclusive: 2.24 µM [inhibitor, partial curve, poor fit]"
15,COc1ccc(N(CC(=O)N2CC=C(c3ccccc3)CC2)S(=O)(=O)c2c(C)noc2C)cc1,inactive
16,O=C(c1cc(-c2ccc(Br)cc2)nc2ccccc12)N1CCN(c2ccccc2O)CC1,active: 11.2 µM
17,CC(NC(=O)Nc1ccc(Cl)cc1)c1ccccc1 (configuration not stated),"inconclusive: 14.1 µM [inhibitor, single point]"
18,N#C/C(=C(/O)c1cccs1)c1nnc2n1CCCCC2,inactive
19,Cc1nc2cc(-c3ccsc3-n3c(C)ccc3C)[nH]n2c(=O)c1Cl,"inconclusive: 3.55 µM [inhibitor, partial curve, poor fit]"
20,CCOc1ccc(C(=O)CCN2CCCCCC2)cc1,"inconclusive: 11.2 µM [inhibitor, partial curve, poor fit]"
21,COC(=O)c1ccc(CSc2nc3ccccc3c(=O)n2-c2ccc(OC)c(OC)c2)o1,inactive
22,O=C(/C=C/c1cccc(O)c1)c1ccc(N2CCOCC2)cc1,"inconclusive: 28.2 µM [inhibitor, single point]"
23,CCc1cccc(NC(=O)CCC(=O)N2CCSc3ccccc32)c1,"inconclusive: 11.2 µM [inhibitor, partial curve]"

row,Compound,Potency
1,Cc1ccc(N2CCN(C(=O)c3c(C)oc4ncn(CC(C)C)c(=O)c34)CC2)c(C)c1,inactive
2,O=C(CCCCCBr)N1CCC(CC2CC(c3cccc(Br)c3)=NO2)(C(=O)NCC2CCCCC2)CC1 (configuration not stated),"inconclusive: 3.16 µM [inhibitor, full curve, poor fit]"
3,Cc1nc2ccc(S(=O)(=O)N(C)CC(=O)NCCc3ccccc3)cc2s1,"inconclusive: 3.55 µM [inhibitor, single point]"
4,Cc1cccc(NC(=O)CSc2ncc3c(n2)-c2ccccc2N(Cc2ccc(F)cc2)S3(=O)=O)c1C,inactive
5,O=C(COC(=O)c1ccccc1O)NCC1COc2ccccc2O1 (configuration not stated),"inconclusive: 5.62 µM [inhibitor, single point]"
6,Cc1noc(C)c1CSCC(=O)Nc1cc(Cl)ccc1N1CCCCC1,"inconclusive: 35.5 µM [inhibitor, partial curve, poor fit]"
7,CN1CCc2c1nc1ccccc1c2N (tested in a mixture with another compound),inactive
8,Cc1nnc2ccc(N3CCN(c4cccc(C(F)(F)F)c4)CC3)nn12,inactive
9,O=C(CSc1c2c(nc3ccc(Cl)cc13)CCCC2)NCCCN1CCOCC1,"inconclusive: 35.5 µM [inhibitor, single point]"
10,CCCCCCSc1ccc([C@H]2N[C@@](C)(C(=O)OC)[C@H]3C(=O)N(CC)C(=O)[C@@H]23)cc1,"inconclusive: 35.5 µM [inhibitor, single point]"
11,O=C(NNc1cc(Br)c(O)c(Br)c1)c1ccccc1,inactive
12,C[C@@H]1CN([C@@H](C)CO)S(=O)(=O)c2ccc(C#CC3CCCCC3)cc2O[C@@H]1CN(C)Cc1cccnc1,"inconclusive: 22.4 µM [inhibitor, single point]"
13,COc1ccc(CCNC(=O)C(C)n2nc(C)c3c(C)n(-c4ccc(C)cc4)nc3c2=O)c(OC)c1 (configuration not stated),"inconclusive: 11.2 µM [inhibitor, single point]"
14,CCOc1ccc(Br)cc1S(=O)(=O)Nc1ccccc1N1CCOCC1,"inconclusive: 35.5 µM [inhibitor, single point]"
15,O=C(O)C1CC(=O)N(C2CCCCCC2)C1 (configuration not stated),"inconclusive: 15.8 µM [inhibitor, single point]"
16,Cc1nc(NS(=O)(=O)c2ccc(Cl)s2)c2c3c(sc2n1)CCCC3,"inconclusive: 15.8 µM [inhibitor, single point]"
17,O=C(Nc1cccnc1)c1cccc([N+](=O)[O-])c1,inactive
18,CC(OC(=O)CCCN=C1NS(=O)(=O)c2ccccc21)C(=O)Nc1ccccc1F (configuration not stated),"inconclusive: 6.31 µM [inhibitor, single point]"
19,O=C(Nc1cccc(Cl)c1)c1ccc(F)c(S(=O)(=O)NCc2cccs2)c1,active: 10 µM
20,Cc1ccccc1C(=O)Nc1ccc(N(C)C)c2ccccc12,inactive
21,CSc1cccc(NC(=S)N(CCC(C)C)C(C)c2ccncc2)c1 (configuration not stated),"inconclusive: 35.5 µM [inhibitor, single point]"
22,COc1ccc(Cc2c(-c3cccc(Br)c3)nc3ccc(Br)cn23)c(C)c1,"inconclusive: 7.08 µM [inhibitor, partial curve]"
23,COC(=O)c1cc(Cl)ccc1NCC(N)c1ccccc1 (configuration not stated),"inconclusive: 20 µM [inhibitor, single point]"

row,Compound,Potency
1,CC1CCC(NC(=O)CN2CCN(S(=O)(=O)c3ccc(Br)s3)CC2)CC1 (configuration not stated),inactive
2,CCC(C(=O)Nc1cc(OC)cc(OC)c1)n1nc(-c2ccc(C)c(C)c2)ccc1=O (configuration not stated),"inconclusive: 8.91 µM [inhibitor, partial curve, poor fit]"
3,COc1cc(OC)c(C(=O)NCCCn2ccnc2)cc1OC,inactive
4,CCOc1ccc(C(=O)NCCn2cc(SCC(=O)Nc3ccc4c(c3)OCCO4)c3ccccc32)cc1,"inconclusive: 11.2 µM [inhibitor, partial curve, poor fit]"
5,COc1ccc(-n2c(=O)c3c(c4cc(OC)ccc4n3C)n(Cc3cccc(OC)c3)c2=O)cc1,"inconclusive: 2.82 µM [inhibitor, single point]"
6,Cc1cccc(Cn2c(SCc3ccc(C(=O)NCCc4ccccc4)cc3)nc3ccncc32)c1,active: 7.94 µM
7,CCOc1cc(C(N)=O)cc(OCC)c1OCC,inactive
8,Nc1nonc1-n1nnc(C(=O)N/N=C/c2ccccc2Cl)c1CSc1ccccc1,"inconclusive: 10 µM [inhibitor, partial curve]"
9,CCCCn1c(SCN2C(=O)c3ccccc3C2=O)nc2cc(S(N)(=O)=O)ccc21,"inconclusive: 14.1 µM [inhibitor, partial curve, poor fit]"
10,CC(C)c1ccc(O)c(NC(=S)NC(=O)CCc2ccccc2)c1,"inconclusive: 15.8 µM [inhibitor, single point]"
11,O=C1NC(Nc2nc3ccccc3s2)(C(F)(F)F)C(=O)N1C1CCCCC1 (configuration not stated),active: 7.94 µM
12,Fc1ccccc1N1CCN(C2CCCN(Cc3cccc(C(F)(F)F)c3)C2)CC1 (configuration not stated),"inconclusive: 35.5 µM [inhibitor, single point]"
13,C=CCn1cc(C(=O)NCCOC)c(=O)c2cc(S(=O)(=O)N3CCCCCC3)ccc21,"inconclusive: 14.1 µM [inhibitor, partial curve]"
14,O=C(NCc1ccco1)c1ccc(COc2cc(Cl)ccc2Cl)cc1,"inconclusive: 22.4 µM [inhibitor, single point]"
15,CCCc1nc2ccc(C)cn2c1Cc1ccccc1OC,"inconclusive: 14.1 µM [inhibitor, partial curve, poor fit]"
16,CC12C=CC3(O1)C(C(=O)N1CCCOC13)C2C(=O)O (configuration not stated),"inconclusive: 3.16 µM [inhibitor, full curve]"
17,Cc1ccc(S(=O)(=O)Nc2c(C)[nH]c(=O)[nH]c2=O)cc1C,"inconclusive: 17.8 µM [inhibitor, single point]"
18,Cc1cc(-c2ccccc2)nc2[nH]n(-c3ccccc3)c(=O)c12,inactive
19,O=c1[nH]nc(SCc2ccccc2)c(=O)[nH]1,"inconclusive: 6.31 µM [inhibitor, single point]"
20,CCOC(=O)Cc1csc(NC(=O)CSc2nc(N)c3c(C)c(C)sc3n2)n1,inactive
21,O=C(CSc1nnc(-c2ccccc2)o1)c1cccc([N+](=O)[O-])c1,"inconclusive: 6.31 µM [inhibitor, single point]"
